The full ranking holds about 33,000 sequences; the median of “E-score (-0.5 to 0.5)” is about -0.043, and the highest 2% start at about 0.37. The list shows a part of the results.
Biological target: T1, Upc2 (UniProt Q12151)
T1 sequence: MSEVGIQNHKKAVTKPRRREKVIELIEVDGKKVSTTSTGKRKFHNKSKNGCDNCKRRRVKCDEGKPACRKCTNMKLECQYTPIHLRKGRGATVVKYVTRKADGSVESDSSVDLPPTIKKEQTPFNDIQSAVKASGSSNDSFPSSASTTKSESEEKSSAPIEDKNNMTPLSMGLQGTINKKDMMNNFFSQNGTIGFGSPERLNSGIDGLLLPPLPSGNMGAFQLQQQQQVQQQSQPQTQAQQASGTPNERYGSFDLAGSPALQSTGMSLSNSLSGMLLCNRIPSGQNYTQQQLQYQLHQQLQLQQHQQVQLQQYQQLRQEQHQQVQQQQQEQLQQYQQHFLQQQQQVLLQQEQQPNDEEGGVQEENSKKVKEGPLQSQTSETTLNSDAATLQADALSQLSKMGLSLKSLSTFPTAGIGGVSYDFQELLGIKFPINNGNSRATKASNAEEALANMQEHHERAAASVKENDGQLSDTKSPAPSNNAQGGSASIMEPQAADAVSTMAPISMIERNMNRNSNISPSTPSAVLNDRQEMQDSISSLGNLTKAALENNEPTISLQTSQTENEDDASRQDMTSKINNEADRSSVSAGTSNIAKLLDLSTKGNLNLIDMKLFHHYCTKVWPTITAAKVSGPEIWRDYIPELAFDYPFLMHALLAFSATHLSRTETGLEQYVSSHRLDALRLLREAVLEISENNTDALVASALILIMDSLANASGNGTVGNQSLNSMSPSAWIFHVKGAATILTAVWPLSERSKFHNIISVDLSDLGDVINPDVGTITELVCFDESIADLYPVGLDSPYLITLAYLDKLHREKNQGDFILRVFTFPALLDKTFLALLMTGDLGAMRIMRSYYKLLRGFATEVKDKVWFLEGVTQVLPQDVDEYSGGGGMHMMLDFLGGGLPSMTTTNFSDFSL
Test: PBM E-score (8-mer binding enrichment) (E-score (-0.5 to 0.5)); higher = stronger / more preferred TF binding; most listed sequences are background and not binding sites
Settings: protein concentration: 200 nM; construct: GST-full length
Method: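 Universal 'all 10-mer' protein binding microarrays (Agilent AMADID 015681) probed with GST-tagged S. cerevisiae TFs (full-length or DBD) made by in vitro transcription/translation (PURExpress), about 100-200 nM. Bound TF was detected with fluorescent anti-GST. Each ungapped 8-mer (which stands for itself and its reverse complement) is scored by the PBM enrichment score (E-score), a modified Wilcoxon-Mann-Whitney statistic from -0.5 to +0.5, computed with the Universal PBM Analysis Suite. Scale: above 0.35 generally sequence-specific binding.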

| Sequence | PBM E-score |
| --- | --- |
| AAGGTGGT | -0.115 |
| ACACCCGT | 0.197 |
| GTCCGAAA | 0.0978 |
| CGCAAGGA | -0.0287 |
| GGGCTATA | -0.0146 |
| AGTGTGTC | 0.0799 |
| AAGTTAGC | 0.032 |
| ATATTCCG | -0.039 |
| CGCGGAGC | 0.0452 |
| CATAGTGC | -0.0902 |
| GGTTTGAA | 0.117 |
| GCGGCACC | -0.0164 |
| CGCTCTTA | 0.232 |
| CTGACCCA | -0.26 |
| CCCGTTGC | -0.113 |
| GCTGCGAC | -0.172 |
| GCAAGTTA | -0.0991 |
| TGTGCACA | 0.0442 |
| CAACGTAG | -0.0391 |
| ATACGACG | 0.483 |
| GCAGACGA | 0.122 |
| CCGTTAGA | -0.0488 |
| ATACCCGC | 0.0747 |
| CTACGGGA | 0.00845 |
| AGTCGAAG | -0.273 |

| Sequence | PBM E-score |
| --- | --- |
| ACCTCGCT | 0.221 |
| ACCGCACT | 0.174 |
| CCTATTTA | -0.202 |
| AGGAACCC | 0.0161 |
| AATAACAG | 0.0645 |
| CAACAGGA | -0.231 |
| TATATAGA | 0.201 |
| AGGTGCGG | -0.112 |
| GGTGCACA | -0.103 |
| ATCGAAAG | -0.0276 |
| AAGACAGA | 0.0529 |
| AAACATTT | 0.013 |
| GTTCGAAC | 0.212 |
| CTTAAGGA | -0.216 |
| ATGCTCTC | -0.0987 |
| ACGTGGCG | 0.0238 |
| AGCCCGTC | -0.186 |
| AAAACGAA | 0.283 |
| CGGATGCC | 0.0567 |
| AATATTGG | -0.0635 |
| AATGGTTG | -0.0265 |
| AGGCCGCG | -0.076 |
| CAAACTCG | 0.104 |
| AGTATGAG | -0.125 |
| CGTTAGAC | 0.101 |

| Sequence | PBM E-score |
| --- | --- |
| ATTCGCAC | 0.0659 |
| GATAGAGA | -0.0427 |
| ACCGGAAT | -0.105 |
| CAAATGAG | -0.0504 |
| GAACGGAA | 0.207 |
| CCCTGGAC | -0.217 |
| GCCTATTA | -0.0629 |
| CACGACAG | 0.0499 |
| CATGAACA | 0.00931 |
| AATTCTCC | -0.19 |
| GCCACCCC | -0.114 |
| ACAGACGT | -0.13 |
| CACATATA | -0.0703 |
| TGAAGTCA | -0.0978 |
| CATTGATA | -0.156 |
| TCGTTTCA | 0.406 |
| CGAGTCGA | 0.272 |
| ACATTGCC | -0.154 |
| CGGGAGAG | -0.0503 |
| AGCGAATC | 0.228 |
| GATACTCC | -0.0801 |
| GCCTAGAC | 0.0469 |
| CAGTATAA | 0.191 |
| AAACAGTC | 0.0141 |
| CTCGCAAC | 0.106 |

| Sequence | PBM E-score |
| --- | --- |
| GCCTACGC | -0.153 |
| AATAATAG | -0.0926 |
| CATCGCGC | 0.0671 |
| AAAGTATG | -0.147 |
| CAAAAAAG | -0.053 |
| ACGTGGTA | 0.074 |
| GATACCAA | -0.00349 |
| CTTGACGA | -0.0346 |
| ACGTGGTC | -0.0145 |
| AGTTAATG | -0.0415 |
| ATTAATCC | -0.00773 |
| CCCACGCA | -0.0804 |
| TCTGCTAA | -0.132 |
| ACACTTAA | 0.161 |
| AACCCCGT | 0.129 |
| ATGTAGGG | -0.205 |
| ACTGGATA | -0.0304 |
| CTTGCTAC | 0.0254 |
| TAGAGATA | -0.0296 |
| CCGACGTC | 0.0845 |
| ACTCCTCT | -0.183 |
| CTATTCTC | -0.213 |
| CTGGGCAC | 0.00195 |
| CATACTAA | 0.0441 |
| ACTGATAA | -0.12 |

| Sequence | PBM E-score |
| --- | --- |
| CGCAGCAG | -0.0376 |
| GTGCCGAA | -0.0249 |
| AGGCAGGA | -0.138 |
| AAGAACAG | -0.0861 |
| AGTTGTAC | 0.153 |
| CGAGAGTC | 0.115 |
| CGGCTTAC | 0.0384 |
| AAGGAAAT | -0.0337 |
| ATCTGTCC | -0.26 |
| AGGAGGGG | -0.2 |
| AACTCGCA | 0.159 |
| GCACATTA | -0.028 |
| AAATTGAA | -0.157 |
| CTCACGAA | 0.0214 |
| CCTAGCCA | -0.139 |
| ATATGGGA | -0.17 |
| AAGAGAAC | 0.21 |
| CAAAGAAG | 0.0356 |
| CCATGGAG | -0.327 |
| GACAGCAC | 0.0344 |
| GACAGAAA | 0.133 |
| AGCGGGTC | -0.0751 |
| TATTATGA | 0.0109 |
| GCCTGCCC | -0.234 |
| AACCGCGG | 0.0911 |

| Sequence | PBM E-score |
| --- | --- |
| CTGAGTTA | -0.176 |
| CGGGAGGC | -0.232 |
| ATTGGATC | -0.187 |
| TGGTACAA | -0.195 |
| ACTAATCC | -0.0565 |
| CACTTTGA | -0.16 |
| CGAATTTA | 0.165 |
| GCAATGTA | 0.15 |
| ACCCCTGC | -0.412 |
| TAGGCATA | -0.146 |
| GCATTGGC | -0.243 |
| AAGCGCCT | -0.223 |
| GAGGGCCC | -0.156 |
| CATGTTAG | -0.12 |
| ATGATTTG | -0.0654 |
| AGCCGGCA | -0.134 |
| AGAGCGAT | -0.0429 |
| ATCTCAGG | -0.231 |
| AGCCAACA | -0.098 |
| ACCAAAGC | -0.0372 |
| AGGGTGGG | 0.0134 |
| ACGCGTGC | 0.186 |
| ATCACGTA | 0.247 |
| GCCACACC | -0.203 |
| ATTTGTAG | -0.154 |

| Sequence | PBM E-score |
| --- | --- |
| GCACGTCA | -0.113 |
| CCTACAAC | -0.0791 |
| CCATACAC | 0.00869 |
| AGCGCGAG | 0.0101 |
| AAGCCACG | 0.0648 |
| AAATTGGC | -0.0996 |
| AACGGCTG | 0.143 |
| ATTCGCAG | -0.0475 |
| ACAAGGAG | -0.0353 |
| AAGTTAGA | -0.113 |
| ACAAGATG | -0.154 |
| CGAGATAG | 0.122 |
| TAATCCGA | 0.0736 |
| CTTAAAAG | -0.0494 |
| AGGCTCAT | -0.141 |
| ACCAGAAA | 0.0774 |
| CCCTCCAA | -0.0585 |
| ACTATCTG | -0.112 |
| AAGTGCAT | -0.219 |
| GCGTTAAC | 0.253 |
| CTTTATGC | 0.0479 |
| ACATCGAG | 0.029 |

From the supplement of paper PMC3334620
